Assay results: publication PMC9911399, “Two distinct binding modes provide the RNA-binding protein RbFox with extraordinary sequence specificity”
Numbering of substitutions follows the chain as printed; changes in the protein carry UniProt numbers. The list shows a part of the results.

T1: RBFOX1 RRM (Homo sapiens, UniProt Q9NWB1 109-208)
T1 sequence: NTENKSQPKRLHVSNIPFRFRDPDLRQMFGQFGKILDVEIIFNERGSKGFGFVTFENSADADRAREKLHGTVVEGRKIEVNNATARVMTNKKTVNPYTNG

B1: UGAAUUA (DNA:RNA)
RNA: GGGAGACCGGAAUUCAGAUUGUCCUGAAUUAUUAAAUCCCGUCGUAGCCACCA
DNA 1: CAATCTGAATTCCGGTCTCCC
DNA 2: TGGTGGCTACGACGGGATT
B2: CAUAAUC (DNA:RNA)
RNA: B1 RNA with U25C, G26A, A27U, U29A, A31C
DNA 1: CAATCTGAATTCCGGTCTCCC
DNA 2: TGGTGGCTACGACGGGATT
B3: CCAAUUC (DNA:RNA)
RNA: B1 RNA with U25C, G26C, A31C
DNA 1: CAATCTGAATTCCGGTCTCCC
DNA 2: TGGTGGCTACGACGGGATT
B4: AGGCACU (DNA:RNA)
RNA: B1 RNA with U25A, A27G, A28C, U29A, U30C, A31U
DNA 1: CAATCTGAATTCCGGTCTCCC
DNA 2: TGGTGGCTACGACGGGATT
B5: CUUGUCU (DNA:RNA)
RNA: B1 RNA with U25C, G26U, A27U, A28G, U30C, A31U
DNA 1: CAATCTGAATTCCGGTCTCCC
DNA 2: TGGTGGCTACGACGGGATT
B6: AACAGGA (DNA:RNA)
RNA: B1 RNA with U25A, G26A, A27C, U29G, U30G
DNA 1: CAATCTGAATTCCGGTCTCCC
DNA 2: TGGTGGCTACGACGGGATT
B7: CCUCGAU (DNA:RNA)
RNA: GGGAGACCGGAAUUCAGAUUGUCCCCUCGAUUUAAAUCCCGUCGUAGCCACCA
DNA 1: CAATCTGAATTCCGGTCTCCC
DNA 2: TGGTGGCTACGACGGGATT
B8: CGAUCUC (DNA:RNA)
RNA: B1 RNA with U25C, A28U, U29C, A31C
DNA 1: CAATCTGAATTCCGGTCTCCC
DNA 2: TGGTGGCTACGACGGGATT
B9: CGGACAG (DNA:RNA)
RNA: B7 RNA with C26G, U27G, C28A, G29C, U31G
DNA 1: CAATCTGAATTCCGGTCTCCC
DNA 2: TGGTGGCTACGACGGGATT
B10: CGGGGGA (DNA:RNA)
RNA: B7 RNA with C26G, U27G, C28G, A30G, U31A
DNA 1: CAATCTGAATTCCGGTCTCCC
DNA 2: TGGTGGCTACGACGGGATT
B11: CGGGUGU (DNA:RNA)
RNA: B7 RNA with C26G, U27G, C28G, G29U, A30G
DNA 1: CAATCTGAATTCCGGTCTCCC
DNA 2: TGGTGGCTACGACGGGATT
B12: CGUACGA (DNA:RNA)
RNA: B1 RNA with U25C, A27U, U29C, U30G
DNA 1: CAATCTGAATTCCGGTCTCCC
DNA 2: TGGTGGCTACGACGGGATT
B13: AACGUGA (DNA:RNA)
RNA: B1 RNA with U25A, G26A, A27C, A28G, U30G
DNA 1: CAATCTGAATTCCGGTCTCCC
DNA 2: TGGTGGCTACGACGGGATT
B14: AAUCUGU (DNA:RNA)
RNA: B7 RNA with C25A, C26A, G29U, A30G
DNA 1: CAATCTGAATTCCGGTCTCCC
DNA 2: TGGTGGCTACGACGGGATT
B15: AGCCGCC (DNA:RNA)
RNA: B7 RNA with C25A, C26G, U27C, A30C, U31C
DNA 1: CAATCTGAATTCCGGTCTCCC
DNA 2: TGGTGGCTACGACGGGATT
B16: CAGGGUA (DNA:RNA)
RNA: B7 RNA with C26A, U27G, C28G, A30U, U31A
DNA 1: CAATCTGAATTCCGGTCTCCC
DNA 2: TGGTGGCTACGACGGGATT
B17: CAAAUAA (DNA:RNA)
RNA: B1 RNA with U25C, G26A, U30A
DNA 1: CAATCTGAATTCCGGTCTCCC
DNA 2: TGGTGGCTACGACGGGATT
B18: GCGACCU (DNA:RNA)
RNA: B7 RNA with C25G, U27G, C28A, G29C, A30C
DNA 1: CAATCTGAATTCCGGTCTCCC
DNA 2: TGGTGGCTACGACGGGATT
B19: GGAUAUC (DNA:RNA)
RNA: B1 RNA with U25G, A28U, U29A, A31C
DNA 1: CAATCTGAATTCCGGTCTCCC
DNA 2: TGGTGGCTACGACGGGATT
B20: GACCCUA (DNA:RNA)
RNA: B1 RNA with U25G, G26A, A27C, A28C, U29C
DNA 1: CAATCTGAATTCCGGTCTCCC
DNA 2: TGGTGGCTACGACGGGATT
B21: GCAUAGU (DNA:RNA)
RNA: B7 RNA with C25G, U27A, C28U, G29A, A30G
DNA 1: CAATCTGAATTCCGGTCTCCC
DNA 2: TGGTGGCTACGACGGGATT
B22: UUGGAAA (DNA:RNA)
RNA: B1 RNA with G26U, A27G, A28G, U29A, U30A
DNA 1: CAATCTGAATTCCGGTCTCCC
DNA 2: TGGTGGCTACGACGGGATT
B23: CAGAUUU (DNA:RNA)
RNA: B1 RNA with U25C, G26A, A27G, A31U
DNA 1: CAATCTGAATTCCGGTCTCCC
DNA 2: TGGTGGCTACGACGGGATT
B24: AUCUAUC (DNA:RNA)
RNA: B1 RNA with U25A, G26U, A27C, A28U, U29A, A31C
DNA 1: CAATCTGAATTCCGGTCTCCC
DNA 2: TGGTGGCTACGACGGGATT
B25: UCGCCCU (DNA:RNA)
RNA: B7 RNA with C25U, U27G, G29C, A30C
DNA 1: CAATCTGAATTCCGGTCTCCC
DNA 2: TGGTGGCTACGACGGGATT
B26: UCGCGUA (DNA:RNA)
RNA: B7 RNA with C25U, U27G, A30U, U31A
DNA 1: CAATCTGAATTCCGGTCTCCC
DNA 2: TGGTGGCTACGACGGGATT
B27: ACAUCGU (DNA:RNA)
RNA: B7 RNA with C25A, U27A, C28U, G29C, A30G
DNA 1: CAATCTGAATTCCGGTCTCCC
DNA 2: TGGTGGCTACGACGGGATT
B28: CGAAUGC (DNA:RNA)
RNA: B1 RNA with U25C, U30G, A31C
DNA 1: CAATCTGAATTCCGGTCTCCC
DNA 2: TGGTGGCTACGACGGGATT
B29: UCGAUCU (DNA:RNA)
RNA: B1 RNA with G26C, A27G, U30C, A31U
DNA 1: CAATCTGAATTCCGGTCTCCC
DNA 2: TGGTGGCTACGACGGGATT
B30: CCUUAUU (DNA:RNA)
RNA: B7 RNA with C28U, G29A, A30U
DNA 1: CAATCTGAATTCCGGTCTCCC
DNA 2: TGGTGGCTACGACGGGATT
B31: AAAAGGC (DNA:RNA)
RNA: B1 RNA with U25A, G26A, U29G, U30G, A31C
DNA 1: CAATCTGAATTCCGGTCTCCC
DNA 2: TGGTGGCTACGACGGGATT

molecular target: T1, RBFOX1 RRM; assay: EMSA; HiTS-Eq, 1 nM pool, 10 min; buffer printed only for the single-RNA assays: 10 mM Tris pH 7.5, 150 mM NaCl, 3.4 mM EDTA, 0.001% NP-40, 30 C; settings: tags: His6 N-terminal (pET28a); label: 5' 32P
In short: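 Purified RbFox RRM (wild type or mutant) was equilibrated for 10 min in 50 µL with 1 nM of a 5′-radiolabelled pool of RNA with 7 randomized nucleotides, its flanks annealed to DNA oligonucleotides, across increasing protein concentrations. Free RNA was separated by 8% native PAGE, excised, reverse-transcribed, PCR-barcoded and sequenced on an Illumina HiSeq 2500. Relative association constants came from read-count changes of each variant against the control reaction, normalised to the cognate motif.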

Binder	binding signal
B1	0.0109 KA relative to UGCAUGU
B2	0.00133 KA relative to UGCAUGU
B3	0.00113 KA relative to UGCAUGU
B4	0.0105 KA relative to UGCAUGU
B5	0.0146 KA relative to UGCAUGU
B6	0.00197 KA relative to UGCAUGU
B7	0.00735 KA relative to UGCAUGU
B8	0.00942 KA relative to UGCAUGU
B9	0.0217 KA relative to UGCAUGU
B10	0.0116 KA relative to UGCAUGU
B11	0.0321 KA relative to UGCAUGU
B12	0.00639 KA relative to UGCAUGU
B13	0.00848 KA relative to UGCAUGU
B14	0.00722 KA relative to UGCAUGU
B15	0.00446 KA relative to UGCAUGU
B16	0.0125 KA relative to UGCAUGU

Binder	binding signal
B17	0.00109 KA relative to UGCAUGU
B18	0.0112 KA relative to UGCAUGU
B19	0.014 KA relative to UGCAUGU
B20	0.00243 KA relative to UGCAUGU
B21	0.0104 KA relative to UGCAUGU
B22	0.0106 KA relative to UGCAUGU
B23	0.00643 KA relative to UGCAUGU
B24	0.00278 KA relative to UGCAUGU
B25	0.00703 KA relative to UGCAUGU
B26	0.0087 KA relative to UGCAUGU
B27	0.00239 KA relative to UGCAUGU
B28	0.0214 KA relative to UGCAUGU
B29	0.0103 KA relative to UGCAUGU
B30	0.00471 KA relative to UGCAUGU
B31	0.00573 KA relative to UGCAUGU
